Reference: PubChem BioAssay AID1159614 (National Center for Advancing Translational Sciences (NCATS), 2016)
The whole screen tested about 45,000 compounds, of which about 65 (0.1%) were called active. Calls follow the shape of the dose curve; as a rule, active = well fitted activation curve with a large enough effect; inconclusive = small, poorly fitted or top-dose-only effect; inactive = no such curve, though single readings can be large or run the other way. Some of the results follow.

Each compound was assayed against Galactocerebrosidase (Homo sapiens) (UniProt P54803) (assay: A Novel Cell-Based Assay to Identify Small Molecules for B -Galactocerebrosidase). Settings: 145M-Twi-hGALC-G270D cells (Twitcher mouse brain line with human GALC G270D), HMU-beta-Gal fluorescence, 48 h; series mostly up to 57.5 µM; activation: at the top concentration.
Sequence of UniProt P54803 (P54803 whole entry, looked up): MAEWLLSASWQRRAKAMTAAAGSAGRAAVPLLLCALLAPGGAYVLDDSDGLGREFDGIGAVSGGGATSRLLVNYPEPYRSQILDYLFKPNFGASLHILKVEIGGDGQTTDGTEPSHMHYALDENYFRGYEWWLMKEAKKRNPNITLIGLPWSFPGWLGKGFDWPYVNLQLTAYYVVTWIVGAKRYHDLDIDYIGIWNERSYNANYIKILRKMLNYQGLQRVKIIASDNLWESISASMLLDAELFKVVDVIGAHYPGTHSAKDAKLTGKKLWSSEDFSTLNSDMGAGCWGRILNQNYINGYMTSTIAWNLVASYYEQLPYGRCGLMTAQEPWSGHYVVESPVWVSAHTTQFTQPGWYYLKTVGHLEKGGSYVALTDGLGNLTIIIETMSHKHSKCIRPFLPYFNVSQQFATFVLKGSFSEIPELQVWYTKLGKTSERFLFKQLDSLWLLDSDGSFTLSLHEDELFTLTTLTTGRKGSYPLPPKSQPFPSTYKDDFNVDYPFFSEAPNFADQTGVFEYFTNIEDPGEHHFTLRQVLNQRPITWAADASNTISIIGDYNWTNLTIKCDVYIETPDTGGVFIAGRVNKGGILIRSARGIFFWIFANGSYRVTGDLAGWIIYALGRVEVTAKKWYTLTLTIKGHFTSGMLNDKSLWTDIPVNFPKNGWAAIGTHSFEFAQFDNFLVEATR
Outline: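 Fluorescence readout: HMU-β-gal cleavage by mutant GALC (0.1 mM final, citrate/phosphate pH 5.2 with 1 mg/mL taurocholate), stopped with carbonate/bicarbonate plus Triton X-100. Cells: murine Twitcher 145M-Twi expressing human G270D GALC; qHTS for activators.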
Also: 0% is about no effect; nearly all actives have a fitted effect of over 65% in size.

activation, inactive:
COc1ccc(Cl)cc1NC(=O)Cn1c(=O)n(-c2ccc(C)cc2)c(=O)c2ccc(C(=O)NCc3ccccc3Cl)cc21 -15.8%
COc1ccc(CNC(=O)C(=O)NCC(c2ccco2)S(=O)(=O)c2cccs2)cc1 (stereo not given) -8.22%
CCCCn1c(SCc2ccccc2C)nc2ccsc2c1=O -5.19%
Cc1nnc(SCc2cc(=O)c3cc(F)ccc3[nH]2)n1C -7.93%
Cc1cccc(N2CCN(C(=O)Cn3c(C)c4cnn(-c5ccccc5)c(=O)c4c3C)CC2)c1C -12.9%
CC(C)c1ccccc1NC(=O)C(Cc1c[nH]c2ccccc12)NC(=O)OC(C)(C)C (stereo not given) -16.3%
Cc1ccc(S(=O)(=O)c2nc(-c3cccs3)oc2SCc2ccc(F)cc2)cc1 -6.97%
Cc1ccc(NC(=O)c2ccc3c(O)c(S(=O)(=O)c4ccc(Cl)cc4)c(=O)[nH]c3c2)cc1 -15.1%
CCOC(=O)C1CCCN(C(=O)Cn2ncc3c(C)n(Cc4ccc(Cl)cc4)c(C)c3c2=O)C1 (stereo not given) -3.4%
Cc1ccc(NS(=O)(=O)c2ccc3c(c2)CCN3C(=O)C2CC2)c(C)c1 -4.13%
CC1=C(C#N)C(NC(=O)c2ccccc2)(C(F)(F)F)C(=O)N1 (stereo not given) -9.79%
C=C(C)Cn1c(SCC(=O)c2ccc(Br)cc2)nc2sc3c(c2c1=O)CCCC3 -11%
CCCC(=O)N1c2ccccc2-c2nnc(SC)nc2OC1c1sccc1C (stereo not given) -17.2%
CCOC(=O)c1c(NC(=O)COc2ccc(Cl)cc2Cl)sc2c1CCCCC2 -12.5%
CCc1ccc(S(=O)(=O)Nc2cc3c(cc2C)n(C)c(=O)c(=O)n3C)cc1 -13.6%
CN(C)c1ccc(CNC(=O)Cn2c(-c3cccs3)cc3cc(Cl)ccc32)cc1 -10.1%
Cc1ccc(C)c(N2CCN(S(=O)(=O)c3cc(C(=O)Nc4ccccc4C(F)(F)F)ccc3F)CC2)c1 -24.2%
CC(Oc1ccccc1)C(=O)Nc1c(C(=O)Nc2cccc(F)c2)oc2ccccc12 (stereo not given) -2.88%
O=c1c2oc3ccccc3c2n(Cc2ccccc2F)c(=O)n1Cc1ccc2c(c1)OCO2 -6.31%
CCN(CC)S(=O)(=O)c1ccc(NC(=O)c2c(C)oc3ncnc(N4CCCCC4)c23)cc1 -22%
CC1=C(c2ccc(C)c(C)c2)S(=O)(=O)N=C1N1CCC(C(=O)NCc2ccc(N(C)C)cc2)CC1 -13.9%
Nc1c(-c2nc(-c3ccccc3Cl)no2)nnn1-c1ccccc1C(F)(F)F -19.7%
COc1ccccc1NC(=O)N1CCN(c2nnc(C)c3c(C)n(-c4ccccc4)nc23)CC1 7.82%
Cc1ccc(-c2nnc(SCC(=O)NCc3ccccc3)o2)cc1 -7.92%
CCN(CC)CCN(C(=O)c1ccco1)c1nc2ccc(F)cc2s1 -15.3%
Cc1ccc(NC(=O)Cn2nc(C)c3nn(-c4ccc(Cl)cc4)c(C)c3c2=O)cc1F -8.13%
COc1ccc(N2CCN(C(=O)CSc3nc(-c4ccccc4)no3)CC2)cc1 -8.73%
COc1ccc(OC)c(CCNC(=O)CCCn2c(=O)c3cccn3c3cccnc32)c1 -10.7%
CCOc1ccc(CNS(=O)(=O)c2ccc3c(c2)CC(C)N3C(C)=O)cc1OC (stereo not given) -12.7%
O=C(NCc1ccccc1)c1ccc(CS(=O)(=O)c2c(Cl)cccc2Cl)o1 -1.44%
COc1ccc(-c2n[nH]c3c2C(c2ccccn2)N(C)C3=O)cc1 (stereo not given) -7.75%
COc1ccc(-n2nc3c(N4CCC(C(=O)NC5CCCCC5)CC4)nnc(C)c3c2C)cc1 -10.3%
Cc1cc(C(=O)NCCc2ccc(Cl)cc2)c2c(C)nn(-c3ccccc3)c2n1 -13.6%
COc1cc(CNC(=O)c2ccc(NC(=O)N3CCCCc4ccccc43)cc2)cc(OC)c1OC -8.77%
CCOc1ccc(OCC)c(NC(=O)CN(C)S(=O)(=O)c2ccc3[nH]c(=O)oc3c2)c1 -13.7%
Cc1ccc(NC(=O)c2nc(S(=O)(=O)Cc3ccc(F)cc3)ncc2Cl)cc1C -18.8%
Cc1ccc2oc(=O)c3cnn(CC(=O)N4CCN(c5cccc(Cl)c5)CC4)c3c2c1 -18.6%
CCOC(=O)c1[nH]c(C)c(CCC(=O)N2CCN(c3cc(C)ccc3C)CC2)c1C -9.96%
O=C(CSc1nc(=O)[nH]c2c1CCC2)Nc1cc(C(F)(F)F)ccc1Cl -5.42%
Cc1cccc(C(=O)Nc2ccc3nc(SCC(=O)N4CCCC4)sc3c2)c1 -4.63%
CC(=O)c1cccc(NC(=O)CCn2nc(C)c(S(=O)(=O)N3CCCCC3)c2C)c1 -8.98%
Cc1ccc(OCC(=O)NCC(=O)OCc2cc(=O)n3nc(CC(C)C)sc3n2)cc1 -7.48%
CCc1ccccc1NC(=O)C1CCCN(S(=O)(=O)c2ccc3[nH]c(=O)ccc3c2)C1 (stereo not given) 2%
O=C(c1cccs1)N1CCCc2cc(NS(=O)(=O)c3cc(F)ccc3F)ccc21 -10.2%
O=C(NCCc1ccc(Cl)cc1)c1cnc2sc(N3CCCC3)nn2c1=O -5.86%
CC(=O)[C@@]1(O)CC[C@H]2[C@@H]3CCC4=CC(=O)CC[C@]4(C)[C@H]3CC[C@@]21C -10.8%
O=C(NCCCN1CCN(c2cccc(Cl)c2)CC1)c1ccc2nc(Cc3ccccc3)oc2c1 -9.17%
COc1cccc(CNC(=O)Cn2nc(C)c3sc4ccccc4c3c2=O)c1OC -10.7%
COc1ccc(NC(=O)c2cc(-c3ccccc3F)no2)cc1 -12.4%
Cc1cccc(Nc2sc(C(=O)c3ccc(Cl)cc3)c(N)c2C(N)=O)c1 -15.7%
Cc1nn2c(C)c(C(=O)N3CCN(c4ccc(Cl)cc4)CC3)cnc2c1-c1ccc(F)cc1 -18.8%
CCN(CC)C(=O)c1ccc(O)c(OC)c1 -6.89%
COc1cc2c(cc1OC)n(CC(=O)c1ccc(C)cc1C)c(=O)n1nc(CCn3nc(C)cc3C)nc21 -9.71%
O=S(=O)(c1ccc(-c2cnc(C3CC3)o2)cc1)N1CCN(c2ccccc2F)CC1 -8.06%
Cc1ccccc1CN1C(=O)c2ccccc2Sc2ccc(C(=O)NCCc3ccccc3)cc21 -7.67%
Cc1ccc2nc(NC(=O)c3ccc(S(=O)(=O)N4CCC(C)CC4)cc3)sc2c1 -16.5%
Cc1cccc(C)c1OCC(=O)N(Cc1ccco1)Cc1ccco1 -4.66%
CCOC(=O)c1c(C)[nH]c(C)c1S(=O)(=O)N1CCC(C(=O)N2CCN(c3ccc(F)cc3)CC2)CC1 -5.93%
Cc1ccc2c(=O)cc(CSc3ncn[nH]3)[nH]c2c1C -8.56%
CCn1cc(C(=O)N2CCN(c3cccc(Cl)c3)CC2)c(=O)c2cc(S(=O)(=O)N3CCC(C)CC3)ccc21 -1.02%
